Source: patent US20230416383A1 (INNATE PHARMA, published 2023)

Assays:
[1] = target: T1, human CD123 on AML cells and on normal blood cells (MOLM-13, THP-1, primary AML blasts, basophils) (human, UniProt P26951 19-378); test: cell-based or functional assay
T1 sequence (looked up): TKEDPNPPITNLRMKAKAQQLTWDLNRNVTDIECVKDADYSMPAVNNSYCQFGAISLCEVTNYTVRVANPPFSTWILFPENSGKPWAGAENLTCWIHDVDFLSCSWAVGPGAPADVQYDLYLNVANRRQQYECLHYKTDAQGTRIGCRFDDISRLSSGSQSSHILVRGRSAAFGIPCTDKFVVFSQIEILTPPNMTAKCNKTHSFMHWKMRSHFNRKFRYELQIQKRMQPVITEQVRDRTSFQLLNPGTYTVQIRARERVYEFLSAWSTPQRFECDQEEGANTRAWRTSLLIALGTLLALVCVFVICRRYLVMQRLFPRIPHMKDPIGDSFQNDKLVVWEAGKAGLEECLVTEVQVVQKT

[2] = target: T2, recombinant human CD123 (ACRO Biosystems, catalog no. ILA-H52H6) (human, UniProt P26951 19-305); test: SPR (Biacore T200), antibody captured by anti-human Fc, CD123 as analyte, 1:1 model
T2 construct: Bought protein; also called hCD123; CD123 (human molecules)
T2 sequence: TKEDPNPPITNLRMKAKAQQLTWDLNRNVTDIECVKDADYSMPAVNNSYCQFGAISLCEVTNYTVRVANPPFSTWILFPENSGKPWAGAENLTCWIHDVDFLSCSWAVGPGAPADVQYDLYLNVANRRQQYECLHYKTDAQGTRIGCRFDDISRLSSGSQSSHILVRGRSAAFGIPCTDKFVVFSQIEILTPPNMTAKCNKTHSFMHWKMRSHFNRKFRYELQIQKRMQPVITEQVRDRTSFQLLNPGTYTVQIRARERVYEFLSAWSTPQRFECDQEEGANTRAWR

[3] = target: T3, recombinant human NKp46 extracellular domain with C-terminal 6xHis tag (human, UniProt O76036 22-255); test: SPR, mean +/- SD (n = 3)
T3 construct: Made in CHO cells (Innate Pharma), purified on Ni-NTA and by size exclusion; analyte in SPR; also called hNKp46; Nkp46 (human molecules)
T3 sequence: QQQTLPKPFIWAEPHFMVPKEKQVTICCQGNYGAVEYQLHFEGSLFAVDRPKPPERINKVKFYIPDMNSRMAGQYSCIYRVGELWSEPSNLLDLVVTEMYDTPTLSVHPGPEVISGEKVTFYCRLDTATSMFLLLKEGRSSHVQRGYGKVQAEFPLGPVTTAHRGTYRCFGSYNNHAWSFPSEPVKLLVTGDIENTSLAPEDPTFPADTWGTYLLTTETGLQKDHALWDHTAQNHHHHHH

[4] = target: T2, recombinant human CD123 (ACRO …); test: SPR, mean +/- SD (n = 3)
[5] = target: T3, recombinant human NKp46 extracellular …; test: SPR (Biacore T200), antibody captured by anti-human Fc, NKp46 as analyte, 1:1 model
[6] = target: T4, recombinant Cynomolgus NKp46-FlagM2 extracellular domain (cynomolgus monkey, UniProt Q95JB9 17-254); test: as above
T4 construct: also called CynoNKp46; NKp46 (cynomolgus molecules)
T4 sequence: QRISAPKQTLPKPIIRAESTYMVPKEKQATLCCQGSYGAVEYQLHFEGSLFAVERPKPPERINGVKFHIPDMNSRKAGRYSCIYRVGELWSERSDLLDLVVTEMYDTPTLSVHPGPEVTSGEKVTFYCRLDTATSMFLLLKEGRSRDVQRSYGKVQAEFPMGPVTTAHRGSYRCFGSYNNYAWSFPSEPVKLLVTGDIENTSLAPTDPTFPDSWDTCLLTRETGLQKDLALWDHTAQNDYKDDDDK

Kd [2]: 0.24 nM
koff [2]: 2.85e-05 s⁻¹
kon [2]: 119000 M⁻¹ s⁻¹
Kd [3]: 16.6 nM
Kd [4]: 0.4 nM
Kd [5]: 17.5 nM
koff [5]: 0.000943 s⁻¹
kon [5]: 53800 M⁻¹ s⁻¹
Kd [6]: 67.9 nM
koff [6]: 0.00247 s⁻¹
kon [6]: 36400 M⁻¹ s⁻¹
B1: NKp46-CD123_F25 binding protein (bispecific antibody, human IgG1, kappa)
chain 1: DIVMTQSPDSLAVSLGERATINCESSQSLLSSGNQKNYLTWYQQKPGQPPKPLIYWASTRESGVPDRFSGSGSGTDFTLTISSLQAEDVAVYYCQNDYSYPYTFGQGTKLEIKRTVAAPSVFIFPPSDEQLKSGTASVVCLLNNFYPREAKVQWKVDNALQSGNSQESVTEQDSKDSTYSLSSTLTLSKADYEKHKVYACEVTHQGLSSPVTKSFNRGE[omitted - human IgG1 Fc]
chain 2: EVQLVQSGAEVKKPGESLKISCKGSGYSFTDYYMKWARQMPGKGLEWMGDIIPSSGATFYNQKFKGQVTISADKSISTTYLQWSSLKASDTAMYYCARSHLLRASWFAYWGQGTMVTVSSASTKGPSVFPLAPSSKSTSGGTAALGCLVKDYFPEPVTVSWNSGALTSGVHTFPAVLQSSGLYSLSSVVTVPSSSLGTQTYICNVNHKPSNTKVDKRV[omitted - human IgG1 Fc]TGSQVQLVQSGAEVKKPGSSVKVSCKASGYTFSDYVINWVRQAPGQGLEWMGEIYPGSGTNYYNEKFKAKATITADKSTSTAYMELSSLRSEDTAVYYCARRGRYGLYAMDYWGQGTTVTVSSASTKGPSVFPLAPSSKSTSGGTAALGCLVKDYFPEPVTVSWNSGALTSGVHTFPAVLQSSGLYSLSSVVTVPSSSLGTQTYICNVNHKPSNTKVDKRVEPKSCDKTHS
chain 3: DIQMTQSPSSLSASVGDRVTITCRASQDISNYLNWYQQKPGKAPKLLIYYTSRLHSGVPSRFSGSGSGTDFTFTISSLQPEDIATYFCQQGNTRPWTFGGGTKVEIKRTVAAPSVFIFPPSDEQLKSGTASVVCLLNNFYPREAKVQWKVDNALQSGNSQESVTEQDSKDSTYSLSSTLTLSKADYEKHKVYACEVTHQGLSSPVTKSFNRGEC
modifications: N-linked glycosylation at N297 (EU numbering) of the CH2 domain
notes: also called CD123-NKCE; CD123-NKp46_F25
geometric mean EC50 of killing of MOLM-13 cells by healthy donor NK cells [1]: 0.0042 nM
